{
  "source": "the BET-seq Pho4 binding data (Le et al. 2018)",
  "note": "Some of the results follow. The energies were worked out here from pooled read counts, against the library average; single values are noisy.",
  "data": [
    {"molecular_target": "T1, Pho4 (S. cerevisiae) (UniProt P07270)", "T1 sequence": "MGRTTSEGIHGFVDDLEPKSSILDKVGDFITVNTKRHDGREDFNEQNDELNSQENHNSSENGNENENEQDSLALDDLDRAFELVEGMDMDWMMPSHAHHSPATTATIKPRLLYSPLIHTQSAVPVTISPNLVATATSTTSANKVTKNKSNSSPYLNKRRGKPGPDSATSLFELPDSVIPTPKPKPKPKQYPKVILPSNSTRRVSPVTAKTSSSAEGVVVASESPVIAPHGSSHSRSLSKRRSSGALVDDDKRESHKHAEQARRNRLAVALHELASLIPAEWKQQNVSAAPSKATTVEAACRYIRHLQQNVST", "assay": "relative binding free energy (BET-seq); higher = weaker binding", "conditions": "reference: library average", "units": {"relative binding free energy": "kcal/mol"}, "values": [
      {"sequence": "TGTGGCACGTGGCGAG", "relative binding free energy": -0.07},
      {"sequence": "TCGAGCACGTGGTATG", "relative binding free energy": -0.21},
      {"sequence": "GGTGGCACGTGCGGAT", "relative binding free energy": -0.22},
      {"sequence": "GTGGCCACGTGTTTGG", "relative binding free energy": 0.15},
      {"sequence": "GTGAACACGTGTGGAA", "relative binding free energy": 0.14},
      {"sequence": "GCGCTCACGTGTATGG", "relative binding free energy": 0.28},
      {"sequence": "ATCTTCACGTGAAGTG", "relative binding free energy": 0.15},
      {"sequence": "TGTATCACGTGATATC", "relative binding free energy": 0.31},
      {"sequence": "ATTTACACGTGTCTTA", "relative binding free energy": 0.08},
      {"sequence": "GTGTGCACGTGTTCAT", "relative binding free energy": 0.03},
      {"sequence": "AAGCGCACGTGTGGTA", "relative binding free energy": -0.15},
      {"sequence": "GTATGCACGTGCTTGT", "relative binding free energy": -0.04},
      {"sequence": "TATAACACGTGTGTAA", "relative binding free energy": 0},
      {"sequence": "GCAGGCACGTGAAGGG", "relative binding free energy": 0.08},
      {"sequence": "CGCGGCACGTGGGGTG", "relative binding free energy": -0.32},
      {"sequence": "TGAGGCACGTGATGAA", "relative binding free energy": -0.01},
      {"sequence": "GCGGGCACGTGTTTTT", "relative binding free energy": -0.08},
      {"sequence": "GCTGGCACGTGTGATG", "relative binding free energy": 0.04},
      {"sequence": "ACATTCACGTGTGGTG", "relative binding free energy": 0.23},
      {"sequence": "TTAAGCACGTGGTGGG", "relative binding free energy": -0.19},
      {"sequence": "AGTGACACGTGTGAGC", "relative binding free energy": 0.09},
      {"sequence": "AAATGCACGTGGGTGC", "relative binding free energy": -0.12},
      {"sequence": "ATGTACACGTGTATAA", "relative binding free energy": 0.12},
      {"sequence": "TTGGACACGTGATTGG", "relative binding free energy": 0.15},
      {"sequence": "GAAGGCACGTGGTATA", "relative binding free energy": -0.18},
      {"sequence": "ATGTGCACGTGTGGTG", "relative binding free energy": 0.01},
      {"sequence": "TGTGTCACGTGCTGGG", "relative binding free energy": 0.15},
      {"sequence": "GGCGACACGTGGTGGT", "relative binding free energy": -0.02},
      {"sequence": "GTTAACACGTGAGCTG", "relative binding free energy": 0.26},
      {"sequence": "TTAGTCACGTGCGATG", "relative binding free energy": 0.19},
      {"sequence": "ACGTTCACGTGTTGTA", "relative binding free energy": 0.22},
      {"sequence": "TTAGGCACGTGGTCTG", "relative binding free energy": -0.12},
      {"sequence": "AATATCACGTGCGTGG", "relative binding free energy": -0.03},
      {"sequence": "CATGGCACGTGGTTGA", "relative binding free energy": -0.14},
      {"sequence": "CGTCGCACGTGGGTGA", "relative binding free energy": -0.18},
      {"sequence": "GGGTTCACGTGTAGTC", "relative binding free energy": 0.36},
      {"sequence": "GGACGCACGTGAGGGA", "relative binding free energy": 0.1},
      {"sequence": "TTGGTCACGTGCAGGT", "relative binding free energy": 0.13},
      {"sequence": "ATATTCACGTGGGATT", "relative binding free energy": 0.3},
      {"sequence": "ATTGGCACGTGGTGTG", "relative binding free energy": -0.18},
      {"sequence": "TATAGCACGTGTGGAT", "relative binding free energy": 0.05},
      {"sequence": "AAGGTCACGTGTAGTG", "relative binding free energy": 0.09},
      {"sequence": "TGGGGCACGTGCATTG", "relative binding free energy": -0.13},
      {"sequence": "TTGAACACGTGATTGT", "relative binding free energy": 0.24},
      {"sequence": "GTGAGCACGTGATTTG", "relative binding free energy": 0.12},
      {"sequence": "CTAGGCACGTGAGGTA", "relative binding free energy": 0.04},
      {"sequence": "GGAATCACGTGAGCGT", "relative binding free energy": 0.39},
      {"sequence": "GGCTGCACGTGGTAGG", "relative binding free energy": -0.04},
      {"sequence": "TTTGGCACGTGGGGAC", "relative binding free energy": -0.15},
      {"sequence": "ATCATCACGTGATTGT", "relative binding free energy": 0.22},
      {"sequence": "TGCATCACGTGGAATT", "relative binding free energy": 0.41},
      {"sequence": "GGAATCACGTGAGTTT", "relative binding free energy": 0.22},
      {"sequence": "GTGTCCACGTGCGGAG", "relative binding free energy": 0.05},
      {"sequence": "GTCTTCACGTGCATGG", "relative binding free energy": 0.31},
      {"sequence": "GTGGCCACGTGTGTGC", "relative binding free energy": 0.04},
      {"sequence": "GGTGGCACGTGAAAGG", "relative binding free energy": 0.29},
      {"sequence": "TGTGACACGTGGAATT", "relative binding free energy": 0.19},
      {"sequence": "TTGTTCACGTGGACTA", "relative binding free energy": 0.15},
      {"sequence": "ATAGTCACGTGTAGGA", "relative binding free energy": 0.1},
      {"sequence": "TAGGGCACGTGTCGCG", "relative binding free energy": -0.25},
      {"sequence": "TTCAGCACGTGGGTAA", "relative binding free energy": -0.2},
      {"sequence": "TGAGGCACGTGCTTGG", "relative binding free energy": -0.21},
      {"sequence": "CTGGGCACGTGAATGT", "relative binding free energy": 0.25}
    ]}
  ]
}
